This is one part of the list. These are further read-outs of the screen, such as a control signal, another cell line or another target. No call is given for them.

Common to all, as to assay: Primary Screen for Target Class Profiling of Small Molecule Inhibitors of Methyltransferases
The target in assay [1] is Glycine N-methyltransferase (Homo sapiens) (UniProt Q14749). The following applies: purified enzyme, MTase-Glo SAH luminescence; measured here: GNMT inhibition; at 40 µM; stronger effect = lower value. An excerpt:
(§1) PI: Matthew D. Hall Ph.D. and Quinlin M. Hanson Ph.D.
(§2) National Center for Advancing Translational Sciences (NCATS)
(§3) National Institute of Health (NIH), Rockville, MD
(§4) Target class profiling (TCP) is a chemical biology approach amenable to investigating understudied biological targets. TCP is achieved by developing a generalizable assay platform and applying it to screen a curated set of compound libraries against representative members of a target class. Small molecule methyltransferases (SMMTase) are a subclass of methyltransferase that act on metabolites to modulate signaling pathways, metabolize xenobiotics, or balance the available methyl pool. We screened four curated libraries totaling 27,574 unique compounds against the SMMTases nicotinamide N-methyltransferase (NNMT), phenylethanolamine N-methyltransferase (PNMT), histamine N-methyltransferase (HNMT), glycine N-methyltransferase (GNMT), catechol O-methyltransferase (COMT), and guanidinoacetate N-methyltransferase (GAMT). The data generated by this TCP can be leveraged for informed tool molecule development. For example, in the associated publication we identified a chemotype of HNMT-selective inhibitors. Additionally, we identified a putative SMMTase-selective inhibitor with potential as a tool molecule for studying broader methyltransferase biology.
(§5) High-through put screening assays were developed at the National Center for Advancing Translational Science (NCATS) for the enzymes NNMT, PNMT, HNMT, GNMT, COMT, and GAMT. Enzymatic activity was measured as a function of SAM cofactor conversion using the MTase Glo kit (Promega) for all enzymes. All assays were performed in 1536-well format with substrates and SAM concentrations at KM values. Enzyme concentration and assay timing were optimized for 10-20% SAM conversion. Initial screening of 27,574 compounds was done as single-point assays using the highest compound concentration (40 uM). […] These compounds were replated in 11-point dose response and assayed against NNMT, PNMT, HNMT, GNMT, COMT, GAMT, and a counter-assay. The IC50 and efficacy (maximal response) values were determined for each dose-response curve. These values are also accounted for in the area under the curve (AUC) values.
(§6) PROTOCOL TABLE (as described by Inglese J, Shamu CE and Guy RK. 2007)
(§7) SEQUENCE No. (e.g., 1, 2, 3, etc.); […] (e.g., Cells, Incubation, Reagent, etc.); VALUE; DESCRIPTION.
(§8) 1; Reagent; 2 uL; SMMTase Enzyme (2x) in reaction buffer, columns 1- 48.
(§9) 2; Reagent; 1 uL; SAM (4x) in reaction buffer, columns 1-48.
(§10) 3; Controls; 23 nL; DMSO in column 4; sinefungin in DMSO (0 uM - 40 uM) in 7-point 1:2 dilution series (n = 2) in column 2.
(§11) 4; Compounds; 23 nL; Columns 5-48.
(§12) 5; Reagent; 1 uL; Substrate (4x) in reaction buffer, columns 2-48.
(§13) 6; Time; 20-30 min; Incubation.
(§14) 7; Reagent; 1 uL; MTase-Glo reagent (5X), columns 1-48.
(§15) 8; Time; 30 min; Incubation.
(§16) 9; Reagent; 5 uL; MTase-Glo Detection reagent, columns 1-48.
(§17) 10; Time; 30 min; Incubation, luminescence evolution.
(§18) 11; Detection; Luminescence; ViewLux uHTS Microplate Imager (PerkinElmer).
(§19) NOTES (numbers refer to Sequence numbers above)
(§20) 1, 2, 5. White Medium Binding Greiner 1536-well plates (Cat #789175-F, Greiner Bio-One, Monroe, NC); Reaction buffer: 50 mM Tris, pH 8.0, 3 mM MgCl2, 1 mM EDTA, 50 mM NaCl, 1 mM DTT, and 0.1 mg/mL BSA. Evaporation was prevented by covering assay plates with metal lids containing holes to allow gas diffusion.
(§21) 1. Six SMMTase were profiled: HNMT, GNMT, PNMT, COMT, NNMT, GAMT
(§22) 5. The corresponding substrate was used for each enzyme: HNMT - 5.3 uM Histamine; GNMT - >500 uM Glycine; PNMT - 16.2 uM Norephinephrine; COMT - 13.7 uM Norephinephrine; NNMT - 3.8 uM Nicotinamide; GAMT - 2.5 uM Guanidinoacetate.6, 8, 10. Room temperature
(§23) 6. Final reaction conditions: 10 nM COMT, 5 uM SAM, 15 uM norepinephrine, 50 mM Tris, pH 8.0, 3 mM MgCl2, 1 mM EDTA, 50 mM NaCl, 1 mM DTT, and 0.1 mg/mL BSA; refer to tables 2 and S1 for specific timing.
8. […]

The target in assay [2] is Guanidinoacetate N-methyltransferase (Homo sapiens) (UniProt Q14353). The following applies: purified enzyme, MTase-Glo SAH luminescence; measured here: GAMT inhibition; at 40 µM; stronger effect = lower value.
From the text: as §1, §2, §3, §4, §5, §6, §7, §8, §9, §10, §11, §12, §13, §14, §15, §16, §17, §18, §19, §20, §21, §22, §23
8. […]

The target of assay [3] is Histamine N-methyltransferase (Homo sapiens) (UniProt P50135). The following applies: purified enzyme, MTase-Glo SAH luminescence; measured here: HNMT inhibition; at 40 µM; stronger effect = lower value.
From the text: as §1, §2, §3, §4, §5, §6, §7, §8, §9, §10, §11, §12, §13, §14, §15, §16, §17, §18, §19, §20, §21, §22, §23
8. […]

Assay [4] addresses Nicotinamide N-methyltransferase (Homo sapiens) (UniProt P40261). The following applies: purified enzyme, MTase-Glo SAH luminescence; measured here: NNMT inhibition; at 40 µM; stronger effect = lower value.
From the text: as §1, §2, §3, §4, §5, §6, §7, §8, §9, §10, §11, §12, §13, §14, §15, §16, §17, §18, §19, §20, §21, §22, §23
8. […]

Assay [5] has as its target Phenylethanolamine N-methyltransferase (Homo sapiens) (UniProt P11086). The following applies: purified enzyme, MTase-Glo SAH luminescence; measured here: PNMT inhibition; at 40 µM; stronger effect = lower value.
From the text: as §1, §2, §3, §4, §5, §6, §7, §8, §9, §10, §11, §12, §13, §14, §15, §16, §17, §18, §19, §20, §21, §22, §23
8. […]
% is scaled to controls: 0 for no effect and ±100 for the full control effect.

Take `CC1(C(=O)NC2CCCCCCC2)Cn2c(cc3sccc32)C(=O)N1CCCN1CCCCC1` (stereo not given): the activity change, negative = inhibition in assay [1] was 5.76%; in assay [2], 2.26%; in assay [3], -3.77%; in assay [4] it was 4.48%; in assay [5] it was 5.13%.
Taken in the same sequence, the figures for `CC1(C)CC[C@]2(CO[C@@H]3O[C@H](CO)[C@@H](O)[C@H](O)[C@H]3O)[C@@H](O)C[C@]3(C)C(=CCC4[C@@]5(C)CC[C@H](O[C@@H]6O[C@H](CO[C@@H]7O[C@H](CO[C@@H]8OC[C@@H](O)[C@H](O)[C@H]8O)[C@@H](O)[C@H](O)[C@H]7O)[C@@H](O)[C@H](O)[C@H]6O)C(C)(C)C5CC[C@]43C)[C@@H]2C1` (stereo not given in full) were -6.38%, -12.2%, 0.423%, -17.7% and -1.62%.
Turning to `COc1cccc(-c2ccc(NC(=O)C3CCCN3Cc3cnn(C)c3)cc2)c1` (stereo not given), the activity change, negative = inhibition was -6.07% in assay [1]; -5.33% in assay [2]; -3.86% in assay [3]; -12.6% in assay [4]; -7.17% in assay [5].
Take `Cn1c(=O)c2c(ncn2CC2OCCO2)n(C)c1=O`: the activity change, negative = inhibition is 4.79% in assay [1]; 2.57% in assay [2]; 7.46% in assay [3]; -9.14% in assay [4]; 3.35% in assay [5].
For `CC1CCC2(C(=O)OC3OC(CO)C(O)C(O)C3O)CCC3(C)C(=CCC4C5(C)CCC(O)C(C)(CO)C5CCC43C)C2C1(C)O` (stereo not given), in that order: 0%, 3.45%, 5.05%, -9.39% and 7.12%.
As to `CC(CCC1(O)OC2CC3C4CCC5CC(O[C@@H]6O[C@H](CO)[C@@H](O)[C@H](O)[C@H]6O[C@@H]6O[C@@H](C)[C@H](O)[C@@H](O)[C@H]6O)C(O)CC5(C)C4CCC3(C)C2C1C)CO[C@@H]1O[C@H](CO)[C@@H](O)[C@H](O)[C@H]1O` (stereo not given in full), the activity change, negative = inhibition in assay [1] is 0.436%; in assay [2], -1.1%; in assay [3], 5.23%; in assay [4], -11.8%; in assay [5], -4.06%.
In the case of `CN(C)C/C=C/C(=O)Nc1cccc(C(=O)Nc2cccc(Nc3ncc(Cl)c(-c4c[nH]c5ccccc45)n3)c2)c1`, the activity change, negative = inhibition in assay [1] is -91.1%; in assay [2], -24.5%; in assay [3], -27.2%; in assay [4], -74.6%; in assay [5], -18.5%.
Taken in the same sequence, the figures for `CCCn1ncnc1C(C)Nc1cc(C(C)C)nc2cc(C)nn12` (stereo not given) were -7.98%, -11.7%, -6.13%, -18% and -0.749%.
For `Cc1noc(C)c1C(=O)N1CC(n2cc(COCc3ccccc3)nn2)C1`, the activity change, negative = inhibition in assay [1] is -1.52%; in assay [2], -0.877%; in assay [3], 1.05%; in assay [4], -4.01%; in assay [5] it was 1.38%.
Taken in the same sequence, the figures for `Cc1ccc(C)c(N2CCN(C(=O)CCc3nnc4n(CCC(C)C)c(=O)c5ccccc5n34)CC2)c1` were -7.13%, 0%, 4.39%, -1.55% and -3.38%.
For `CCCC1c2ccc(C)n2CCN1C(=O)Nc1cc(Cl)ccc1OC` (stereo not given), in that order: -14.7%, -0.354%, -17.6%, -5.5% and -9.83%.
Regarding `O=C(NCC(O)CO)c1ccc(OC2CCN(CCc3ccccc3)CC2)cc1` (stereo not given), the activity change, negative = inhibition is -7.81% in assay [1]; -11.3% in assay [2]; -8.32% in assay [3]; -10.3% in assay [4]; 0.857% in assay [5].
Take `CC1(C(=O)NC2CCCCC2)Cn2c(cc3occc32)C(=O)N1Cc1cccs1` (stereo not given): the activity change, negative = inhibition in assay [1] was -0.663%; in assay [2] it was 7.05%; in assay [3], 0.135%; in assay [4], -4.14%; in assay [5], -0.058%.
As for `COCCCN1C(=O)c2ccc(-c3ccco3)n2CC1(C)C(=O)NCc1ccccc1` (stereo not given), the activity change, negative = inhibition was 1.28% in assay [1]; 4.21% in assay [2]; 3.72% in assay [3]; 1.67% in assay [4]; -1.88% in assay [5].

For the origin of these results see PubChem BioAssay AID1745853 (National Center for Advancing Translational Sciences (NCATS), 2022).
